{"source": "PubChem BioAssay (Tox21)", "key": {"[1]": {"test": "A CellTox Green Cytotoxicity Assay to monitor cytotoxicity in HEK293 cells - 40 hour (AID 1224871); also: nearly all actives have a fitted effect of over 45% in size", "how_it_was_run": "(§1)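 Each value comes from one timepoint of a single continuous run in which HEK293 cells with CellTox Green were exposed to compound for up to 40 h at 37 C, dye fluorescence rising with cell death.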"}, "[2]": {"test": "qHTS RealTime-Glo MT Cell Viability Assay in HEK293 cells - 16 hour (AID 1224872)", "how_it_was_run": "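Luminescence generated by NanoLuc from substrate produced by living HEK293 cells served as the viability signal. Each value reflects the reading at its stated time point during continuous 40 h compound exposure at 37 C.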"}, "[3]": {"test": "qHTS RealTime-Glo MT Cell Viability Assay in HepG2 cells - 8 hour (AID 1224873)", "how_it_was_run": "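HepG2 cells mixed with RealTime-Glo MT reagents (NanoLuc plus cell-permeant prosubstrate) were seeded at 600 cells/well, incubated 5 h at 37 C/5% CO2, then pinned with compounds in DMSO; nonlytic luminescence tracked viability during 40 h treatment.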"}, "[4]": {"test": "A CellTox Green Cytotoxicity Assay to monitor cytotoxicity in HepG2 cells - 16 hour (AID 1224876)", "how_it_was_run": "(§2)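 Continuous culture of HepG2 cells with a membrane-impermeant DNA dye; rising fluorescence marks dead cells. Compound exposure lasted up to 40 h at 37 C, with reads every 8 h from 0 h.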"}, "[5]": {"test": "qHTS RealTime-Glo MT Cell Viability Assay in HepG2 cells - 32 hour (AID 1224877)", "how_it_was_run": "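Tox21 10K library screened in qHTS format on HepG2 cells carrying RealTime-Glo reagents. Compounds were added after a 5 h preincubation, and the luminescent signal from continuous culture was measured repeatedly during 40 h treatment.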"}, "[6]": {"test": "A CellTox Green Cytotoxicity Assay to monitor cytotoxicity in HepG2 cells - 24 hour (AID 1224878)", "how_it_was_run": "as §2"}, "[7]": {"test": "A CellTox Green Cytotoxicity Assay to monitor cytotoxicity in HepG2 cells - 40 hour (AID 1224879)", "how_it_was_run": "as §2"}, "[8]": {"test": "A CellTox Green Cytotoxicity Assay to monitor cytotoxicity in HEK293 cells - 24 hour (AID 1224875)", "how_it_was_run": "as §1"}, "[9]": {"test": "qHTS RealTime-Glo MT Cell Viability Assay in HEK293 cells - 40 hour (AID 1224874)", "settings": "RealTime-Glo luminescence; max response: stronger effect = lower value", "how_it_was_run": "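qHTS format; HEK293 cells with NanoLuc/prosubstrate reagent, 37 C/5% CO2 for 5 h pre-dosing; compounds 23 nL in DMSO; luminescence at each time point reflects viable cells.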"}}, "note": "Values joined by “and” are separate entries in the source; they are usually repeats but may differ in a detail not shown here. Equal values may be shown once. The inconclusive results got no clear call from the source; some entries with a clear call stand among them for comparison. A potency beside an inconclusive call is a rough fit, not a confirmed value. The source holds several records for some structures; these can differ, active in one and inactive in another. Active and inactive are the calls of the source. Calls follow the shape of the dose curve; as a rule, active = well fitted curve in the direction sought with a large enough effect in the repeat runs; inconclusive = weak or mixed curves; inactive = no such curve, though single readings can be large; an effect the other way counts as inactive or inconclusive. For max response in this document: % is scaled to controls: 0 for no effect and ±100 for the full control effect. For max response in this document: nearly all actives have a fitted effect of over 50% in size. Potency is read from the fitted curve at half-maximal effect; tags tell the direction and shape of the fitted curve."}
{"smiles": "CC(C)C(O)C(C)(C)CO", "note": "(stereo unspecified)", "values": [{"measurement": "Potency", "setting": "[1]", "value": "inactive"}]}
{"smiles": "O=C(O)CCCCCCCCCCC(=O)O", "values": [{"measurement": "Potency", "setting": "[1]", "value": "inactive"}]}
{"smiles": "C#C[C@]1(O)CC[C@H]2[C@@H]3CCc4cc(OC5CCCC5)ccc4[C@H]3CC[C@@]21C", "values": [{"measurement": "Potency", "setting": "[1]", "value": "inconclusive: 30.1 µM [activator, single point]"}, {"measurement": "Potency", "setting": "[2]", "value": "inconclusive: 21.3 µM [cytotoxic, partial curve]"}, {"measurement": "Potency", "setting": "[3]", "value": "inconclusive: 23.9 µM [falling, partial curve]"}, {"measurement": "Potency", "setting": "[4]", "value": "inconclusive: 26.8 µM [activator, single point]"}, {"measurement": "Potency", "setting": "[5]", "value": "inconclusive: 23.9 µM [cytotoxic, partial curve, poor fit]"}, {"measurement": "Potency", "setting": "[6]", "value": "inconclusive: 26.8 µM [activator, single point]"}, {"measurement": "Potency", "setting": "[7]", "value": "inconclusive: 26.8 µM [activator, single point]"}]}
{"smiles": "COc1ccccc1OCC1CNC(=O)O1", "note": "(stereo unspecified)", "values": [{"measurement": "Potency", "setting": "[1]", "value": "inactive"}]}
{"smiles": "O=C1OC(=O)c2cccc3cccc1c23", "values": [{"measurement": "Potency", "setting": "[1]", "value": "inactive"}]}
{"smiles": "NC=O", "values": [{"measurement": "Potency", "setting": "[1]", "value": "inconclusive: 60.9 µM [activator, single point]"}]}
{"smiles": "CCC(=O)OC/C=C/c1ccccc1", "values": [{"measurement": "Potency", "setting": "[1]", "value": "inconclusive: 43.6 µM [activator, partial curve]"}]}
{"smiles": "C1CCCNCC1", "values": [{"measurement": "Potency", "setting": "[1]", "value": "inactive"}]}
{"smiles": "O=C(OCC(COC(=O)c1ccccc1)(COC(=O)c1ccccc1)COC(=O)c1ccccc1)c1ccccc1", "values": [{"measurement": "Potency", "setting": "[1]", "value": "inconclusive: 1.09 µM [activator, single point]"}, {"measurement": "Potency", "setting": "[2]", "value": "active: 43.6 µM"}, {"measurement": "Potency", "setting": "[3]", "value": "inconclusive: 38.8 µM [falling, partial curve]"}, {"measurement": "Potency", "setting": "[8]", "value": "inconclusive: 1.09 µM [activator, single point]"}]}
{"smiles": "C=CC(=O)OCCOCCOCC", "values": [{"measurement": "Potency", "setting": "[1]", "value": "inactive"}, {"measurement": "max response", "setting": "[9]", "value": "inactive: 21.6%"}]}
{"smiles": "Cc1oc(=O)oc1CN1CCN(c2cc3c(cc2F)c(=O)c(C(=O)O)c2n3C(C)S2)CC1", "note": "(stereo unspecified)", "values": [{"measurement": "Potency", "setting": "[1]", "value": "inactive"}, {"measurement": "Potency", "setting": "[2]", "value": "inactive"}, {"measurement": "max response", "setting": "[9]", "value": "inactive: 5.9%"}, {"measurement": "Potency", "setting": "[4]", "value": "inconclusive: 0.601 µM [activator, partial curve]"}, {"measurement": "Potency", "setting": "[7]", "value": "inconclusive: 0.601 µM [activator, partial curve]"}]}
{"smiles": "C#C[C@]1(O)CC[C@H]2[C@@H]3CCc4cc(O)ccc4[C@H]3CC[C@@]21C", "values": [{"measurement": "Potency", "setting": "[1]", "value": "inconclusive: 0.0038 µM [activator, full curve, poor fit]"}, {"measurement": "Potency", "setting": "[2]", "value": "inconclusive: 10.9 µM [cytotoxic, full curve] and inconclusive: 24.5 µM [cytotoxic, partial curve, poor fit]"}, {"measurement": "Potency", "setting": "[9]", "value": "active: 6.87 µM and active: 21.9 µM and inconclusive: 15.1 µM [cytotoxic, partial curve]"}, {"measurement": "Potency", "setting": "[8]", "value": "inconclusive: 12.2 µM [activator, single point] and inconclusive: 2.1 nM [activator, full curve, poor fit]"}, {"measurement": "Potency", "setting": "[4]", "value": "inconclusive: 0.0268 µM [activator, full curve, poor fit]"}, {"measurement": "Potency", "setting": "[6]", "value": "inconclusive: 43.6 µM [activator, single point]"}, {"measurement": "Potency", "setting": "[7]", "value": "inconclusive: 0.0017 µM [activator, full curve, poor fit]"}]}
{"smiles": "CCCCCCOc1ccc(O)cc1", "values": [{"measurement": "Potency", "setting": "[1]", "value": "active: 19.5 µM"}, {"measurement": "Potency", "setting": "[3]", "value": "inconclusive: 34.7 µM [falling, partial curve]"}, {"measurement": "Potency", "setting": "[8]", "value": "inconclusive: 21.9 µM [activator, partial curve, poor fit]"}, {"measurement": "Potency", "setting": "[4]", "value": "inconclusive: 21.9 µM [activator, partial curve, poor fit]"}, {"measurement": "Potency", "setting": "[5]", "value": "inconclusive: 43.6 µM [cytotoxic, partial curve, poor fit]"}, {"measurement": "Potency", "setting": "[6]", "value": "inconclusive: 21.9 µM [activator, partial curve, poor fit]"}, {"measurement": "Potency", "setting": "[7]", "value": "inconclusive: 19.5 µM [activator, partial curve, poor fit]"}]}
{"smiles": "CC1(C)O[C@@H]2C[C@H]3[C@@H]4CCC5=CC(=O)CC[C@]5(C)[C@@]4(F)[C@@H](O)C[C@]3(C)[C@]2(C(=O)CCl)O1", "values": [{"measurement": "Potency", "setting": "[1]", "value": "inactive"}, {"measurement": "Potency", "setting": "[9]", "value": "inconclusive: 26.8 µM [cytotoxic, partial curve, poor fit]"}]}
{"smiles": "Cc1ccc(O)c(O)c1", "values": [{"measurement": "Potency", "setting": "[1]", "value": "inconclusive: 53.4 µM [activator, single point]"}, {"measurement": "Potency", "setting": "[2]", "value": "inconclusive: 59.9 µM [cytotoxic, single point]"}, {"measurement": "Potency", "setting": "[9]", "value": "inconclusive: 47.6 µM [cytotoxic, single point]"}, {"measurement": "Potency", "setting": "[8]", "value": "inconclusive: 53.4 µM [activator, single point]"}, {"measurement": "Potency", "setting": "[7]", "value": "inconclusive: 53.4 µM [activator, partial curve, poor fit]"}]}
